109 sequences from the supplement of paper PMC4466236 can be followed below.

Whole data set: some 33,000 sequences, median “E-score (dimensionless, -0.5 to 0.5)” near -0.058, cut for the highest 2% near 0.35. The list shows a part of the results.

In the test the test system is MvaT. The test can be described thus: PBM 8-mer E-score (mean of HK and ME arrays) (E-score (dimensionless, -0.5 to 0.5)); higher = stronger relative binding preference; most listed sequences are background and not binding sites. The protocol: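 Protein binding microarray: GST-tagged full-length MvaT (P. aeruginosa PAO1) bound to two universal double-stranded 60-mer arrays (ME and HK), each with a constant 25-mer primer and a variable 35-mer region covering all 8-mers. The 8-mer E-score (rank-based, range -0.5 to 0.5, >0.45 = specific binding) is the mean of the two arrays.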
For CTAAGAGA, the “PBM 8-mer E-score” value turned out to be 0.0176.
On to GTATGGTA, for which the “PBM 8-mer E-score” value was found to be 0.153.
Regarding TATAGTCA, the “PBM 8-mer E-score” value was found to be 0.226.
As for CCAGACTC, the “PBM 8-mer E-score” value was -0.209.
The result for AAGCTGAG reads -0.185; that for GAGAGCAC, -0.281.
Regarding GACAGTAC, the “PBM 8-mer E-score” value was -0.0849.
Under CGAGAACC stands -0.191; under CCCCTAGG, -0.311.
The result for AATTTTGA reads 0.195.
The result for GATCAGTA reads -0.0683; that for CCAAGGAA, -0.256.
For the sequence AGACTTTG, the “PBM 8-mer E-score” value is 0.164.
Under AGGGGGGG stands -0.254.
With ACTGCTAG, the “PBM 8-mer E-score” value was -0.177.
For CCCGTCGA, the “PBM 8-mer E-score” value was -0.154.
GATAAAAA: the “PBM 8-mer E-score” value amounted to 0.273.
The result for AAAGTGTC reads 0.138; that for ACTATGGA, -0.046.
Regarding CCAAGTAG, the “PBM 8-mer E-score” value turned out to be 0.0793.
The result for CCTGGTCG reads -0.203; that for CGAGATTC, -0.0719; that for CTGGCTGC, -0.258.
The result for CGTCCCTA reads -0.147.
The result for CATGATAC reads 0.111.
Regarding ATTTTTTC, the “PBM 8-mer E-score” value was 0.132.
For the sequence ATATACTG, the “PBM 8-mer E-score” value was found to be 0.322.
For the sequence AGGCAAGC, the “PBM 8-mer E-score” value is -0.342.
Turning to CGAATGAA, the “PBM 8-mer E-score” value came to 0.149.
As to CTTTTGCC, the “PBM 8-mer E-score” value is -0.164.
As to GGACAGCA, the “PBM 8-mer E-score” value is -0.053.
Regarding ATTTCCTG, the “PBM 8-mer E-score” value was 0.129.
For GAGACCCC, the “PBM 8-mer E-score” value is -0.214.
Consider CCCCAAGG, for which the “PBM 8-mer E-score” value was -0.329.
The result for CTGCTTCA reads -0.186.
Under CAAAATTA stands 0.3; under AAATCCAC, 0.0368.
On to GTTGCACA, for which the “PBM 8-mer E-score” value is -0.193.
As to CCAACTGA, the “PBM 8-mer E-score” value is -0.0529.
Consider CGTCATAA, for which the “PBM 8-mer E-score” value came to 0.142.
As to AAACATGT, the “PBM 8-mer E-score” value was found to be 0.27.
The result for GTACGATA reads 0.0885.
Under AACGTTTA stands 0.214; under GCCACTCC, -0.235.
The result for ATTCACAG reads 0.187.
For the sequence ATGAGAGG, the “PBM 8-mer E-score” value is -0.197.
Under AGCCCGTA stands -0.113.
With ACGAAGAA, the “PBM 8-mer E-score” value is -0.00559.
Under AGAGCTTG stands -0.246; under CCCGTCGC, -0.261.
As for AAACACCC, the “PBM 8-mer E-score” value is -0.12.
The result for ACGGAATA reads 0.211.
Under ACGCCGGA stands -0.0856; under ACAATGAA, 0.0744; under GGCTTGAC, -0.139.
On to CCCCCCAG, for which the “PBM 8-mer E-score” value was -0.364.
In the case of CGCTGTGA, the “PBM 8-mer E-score” value was -0.0181.
As for AGCCGGTA, the “PBM 8-mer E-score” value was -0.242.
Regarding ATTGGTCG, the “PBM 8-mer E-score” value was 0.121.
Under GGGACAGA stands -0.12; under GATTACAA, 0.188; under CCGGCGCA, -0.0431.
For CAAGACAC, the “PBM 8-mer E-score” value is -0.233.
As to CGTACTCA, the “PBM 8-mer E-score” value is -0.0376.
As for CGCGACGC, the “PBM 8-mer E-score” value was -0.188.
The result for TCAAGCGA reads -0.194.
The result for CGAAACTA reads 0.197; that for GGTCATGA, 0.0267; that for CAGGTGAC, -0.0331.
CGGTCCTC: the “PBM 8-mer E-score” value was -0.336.
For CTCATAAA, the “PBM 8-mer E-score” value worked out at 0.0815.
Under ATACCTGA stands -0.0883.
Under CCTAGACA stands -0.212.
On to CGATTTGC, for which the “PBM 8-mer E-score” value is -0.00476.
Regarding ATCTAGAG, the “PBM 8-mer E-score” value was -0.0603.
The result for ATCTATGA reads 0.0316.
Under AGGCCCCG stands -0.362; under AGTGCAAT, 0.109.
The result for CCTCGCGC reads -0.229.
ACCTCATA: the “PBM 8-mer E-score” value was 0.0878.
In the case of AGAGCTCA, the “PBM 8-mer E-score” value was -0.176.
Consider CTCGTGTA, for which the “PBM 8-mer E-score” value was -0.0442.
Under GCGATCGC stands -0.0216.
As to GGAGGTAA, the “PBM 8-mer E-score” value is -0.0793.
For the sequence ATGTGTAG, the “PBM 8-mer E-score” value stood at 0.124.
For ACTTGTCA, the “PBM 8-mer E-score” value is 0.0131.
The result for CGGAGGAC reads -0.434.
Under AACGGGTA stands -0.0158.
Regarding AAAAGTAG, the “PBM 8-mer E-score” value came to 0.0505.
Under CACCGACA stands -0.184; under AGAGTGAG, -0.037.
Under AGCAAGAC stands -0.13.
For AAACACAA, the “PBM 8-mer E-score” value was 0.245.
For ACACGCCG, the “PBM 8-mer E-score” value was -0.0975.
Under GTGCCCGA stands -0.123; under AAGTACTG, 0.0993; under AGACGCGA, 0.0502.
The result for CTTGCGTA reads -0.0596.
The result for ACATCCCG reads 0.0723.
Turning to ATATGTTA, the “PBM 8-mer E-score” value was found to be 0.423.
Under TACCCTGA stands -0.207; under CTGACGAC, -0.211; under CTTGCAAG, 0.114.
Under ATAGCGTA stands 0.129; under AATGAGGA, -0.0863; under ACAGCATC, -0.122.
Take ATTAATTG: the “PBM 8-mer E-score” value turned out to be 0.391.
The result for ACGTTCCC reads -0.225; that for CCAATAGC, 0.0224.
